Data published in paper PMC10668032.
The list shows a part of the results. At the low end of the ranking, values are background and their order means little.

biological target: SIX1 homeodomain (reference allele) (UniProt Q15475); assay: universal protein binding microarray; conditions: Universal all-10-mer PBM (8x60K, AMADID 030236), 300 nM GST-tagged protein, Alexa Fluor 488 anti-GST; buffer, salt, pH and temperature not stated; high values mean tight binding; most listed sequences are background and not binding sites; double strand, one strand shown

| Sequence | binding signal |
| --- | --- |
| CCACGGTC | -0.236 E-score |
| GCGGACGC | -0.292 E-score |
| AGGCACTC | -0.253 E-score |
| ATTTTACG | -0.137 E-score |
| CAGATCAG | 0.353 E-score |
| AAGGTATA | 0.272 E-score |
| AGTACGCG | -0.148 E-score |
| ATGTCCAG | -0.0971 E-score |
| CCCCGTAC | -0.101 E-score |
| AAGGGGGG | -0.0262 E-score |
| GTCTGTGA | 0.0794 E-score |
| CACCTTGG | 0.0659 E-score |
| CAATATTG | 0.0839 E-score |
| ATTGCGGA | 0.254 E-score |
| CGCAATCA | -0.104 E-score |
| GTGTTTCA | -0.0611 E-score |
| AAGGAGTA | 0.0359 E-score |
| AATGGGGC | -0.0701 E-score |
| AAGAAGAC | -0.0165 E-score |
| CAAACAGG | -0.00224 E-score |
| GTATTACA | 0.227 E-score |
| GCAATGCC | -0.0701 E-score |
| TACAAATA | 0.0624 E-score |
| AATCGCAA | -0.0444 E-score |
| AACTCCCG | 0.0855 E-score |

| Sequence | binding signal |
| --- | --- |
| ACCTTGTC | -0.0473 E-score |
| ATCTAATG | 0.125 E-score |
| CAGGCACG | -0.226 E-score |
| GCAATGAA | -0.106 E-score |
| AGAGGAAA | -0.104 E-score |
| AATCCTCC | 0.184 E-score |
| TGTAGAAA | -0.0351 E-score |
| GCAGCCTA | -0.199 E-score |
| ACTAGAAC | -0.127 E-score |
| CACGCGGG | -0.0634 E-score |
| CACGACGA | -0.0998 E-score |
| CTGCGCAC | -0.236 E-score |
| CGGCCGGA | -0.14 E-score |
| GCACGCTA | 0.026 E-score |
| CAGGACCG | -0.0649 E-score |
| AAAACGCC | -0.203 E-score |
| CTCTGAAC | -0.254 E-score |
| ATGCCGCA | 0.0344 E-score |
| ATGGTCGG | 0.0279 E-score |
| CGAGGCTC | -0.0189 E-score |
| AGATTCGA | -0.0896 E-score |
| CCTCACAG | -0.0445 E-score |
| CTTTGAGA | -0.021 E-score |
| ATCCTGAA | 0.218 E-score |
| ATTCTAGG | -0.0311 E-score |

| Sequence | binding signal |
| --- | --- |
| CGAATGAA | -0.167 E-score |
| GTGGTGTA | 0.286 E-score |
| ACGCGTAT | 0.327 E-score |
| GGATCGAC | 0.297 E-score |
| CACTATAA | -0.0569 E-score |
| GGCCACGA | -0.202 E-score |
| GAGATTGC | -0.0337 E-score |
| CTACTGGA | -0.00869 E-score |
| CGGAGAAA | -0.0585 E-score |
| CCGCAAGG | -0.104 E-score |
| CAGAACCG | -0.0472 E-score |
| ACCGTCAC | -0.121 E-score |
| ACACCCTC | 0.306 E-score |
| ACTGACTA | -0.159 E-score |
| CCACTTCA | 0.0318 E-score |
| AATAGACC | -0.0377 E-score |
| GCAGTTAC | -0.0131 E-score |
| CACCCGTG | 0.0327 E-score |
| GACAGTCC | -0.203 E-score |
| ATACACAT | 0.289 E-score |
| AGCGCCAA | -0.124 E-score |
| CCTTATAA | 0.124 E-score |
| CACCTTGA | 0.0639 E-score |
| CAGGTCAA | -0.282 E-score |
| GTGACCGA | -0.155 E-score |

| Sequence | binding signal |
| --- | --- |
| CTCCAGGA | 0.161 E-score |
| CAATAACG | 0.0172 E-score |
| TAGAGTAA | 0.0878 E-score |
| AAAGTGTG | -0.14 E-score |
| GCTACTTA | -0.19 E-score |
| CCGACGAA | -0.0371 E-score |
| AGCTTGCC | -0.168 E-score |
| ATGCGGAC | 0.0869 E-score |
| GACCATTA | -0.146 E-score |
| AACCCAAT | -0.0919 E-score |
| ACTACCAC | -0.0152 E-score |
| ATGCACAC | 0.158 E-score |
| ATCTCAGA | 0.31 E-score |
| ACACTTAA | -0.0556 E-score |
| CATCGCTC | -0.0961 E-score |
| AGCAACCC | -0.193 E-score |
| GCACAGAC | -0.0294 E-score |
| AGTTCCAT | 0.0254 E-score |
| ACCCCCCC | 0.088 E-score |
| ATATCGGA | 0.427 E-score |
| AGCTAATG | -0.196 E-score |
| AGGGTGAA | -0.142 E-score |
| GGGTTTGA | 0.0715 E-score |
| GGGTACGA | 0.08 E-score |
| ATTGCGAG | 0.141 E-score |

| Sequence | binding signal |
| --- | --- |
| CTTTGAGC | -0.13 E-score |
| AATACGCC | 0.188 E-score |
| ATGACATG | 0.0904 E-score |
| CCGGCTGC | -0.0273 E-score |
| GGGCCAGA | 0.0366 E-score |
| AGCGATAA | -0.0219 E-score |
| GAGTCTCA | -0.0837 E-score |
| AGTTCGAC | -0.295 E-score |
| ATACCATA | 0.394 E-score |
| ACCGCGGC | -0.0758 E-score |
| CTACGTGC | -0.141 E-score |
| CTGTAAAA | -0.237 E-score |
| ATCTTTCC | 0.137 E-score |
| GCATGTCC | -0.155 E-score |
| AGCTACAG | -0.196 E-score |
| CGCGGGGA | 0.124 E-score |
| GAGCCTAA | -0.171 E-score |
| AACGCAAC | -0.212 E-score |
| CCAGATCC | 0.332 E-score |
| ACTAGTGG | -0.0504 E-score |
| AGGTACCA | -0.228 E-score |
| GTCAACAC | -0.0268 E-score |
| GTGAAGCA | -0.164 E-score |
| CCTTTGTC | -0.177 E-score |
| CCCTTTCC | -0.0882 E-score |

| Sequence | binding signal |
| --- | --- |
| AGCTGAGG | -0.224 E-score |
| CTAAATTC | -0.117 E-score |
| GCCACTCC | -0.0445 E-score |
| CTGCTCGC | -0.219 E-score |
| ATCTACCG | 0.232 E-score |
| CTACATTA | -0.135 E-score |
| CGTCCCTA | -0.0137 E-score |
| AAATCCTA | -0.114 E-score |
| AATCTTAG | -0.239 E-score |
| AGCTGGAT | 0.248 E-score |
| CTCGTAGC | -0.11 E-score |
| TACCGAGA | 0.132 E-score |
| CTTGAAGC | -0.239 E-score |
| CAGAAAGG | -0.0337 E-score |
| CTGCAGAC | -0.166 E-score |
| AGCGCGAC | -0.148 E-score |
| ACGAATGA | 0.145 E-score |
| AATATCCT | 0.282 E-score |
| CCCGAGGG | -0.107 E-score |
| GACCCAGA | 0.211 E-score |
| CGCACGTA | 0.111 E-score |
| CTACAAAA | -0.148 E-score |
| GAGGTCGA | -0.154 E-score |
| CCTTATAG | -0.0679 E-score |
| AGTCCTGG | -0.121 E-score |

| Sequence | binding signal |
| --- | --- |
| CAGCTACG | -0.237 E-score |
| ATCAGCGA | 0.103 E-score |
| CCCATACC | 0.15 E-score |
| CATCAAAA | -0.245 E-score |
| CCAACGCC | -0.0612 E-score |
| ATGGAGTA | 0.201 E-score |
| GGGGGCAC | -0.19 E-score |
| CACCACTC | -0.0348 E-score |
| AGCAAGCC | -0.287 E-score |
| CCTTCGCG | -0.157 E-score |
| ACAAGAAT | -0.0968 E-score |
| AACCACAG | -0.089 E-score |
| AAGAGACA | 0.00979 E-score |
| AGGATATG | 0.421 E-score |
| ACCCCCAA | 0.135 E-score |
| CGAATATC | 0.308 E-score |
| ATGACAAC | -0.0918 E-score |
| ACAATAAA | -0.155 E-score |
| GTGAATTA | -0.198 E-score |
| GAACTACC | -0.0624 E-score |
| CGACCTAG | 0.0281 E-score |
| ACGTGAAA | -0.0853 E-score |
| ATGCTTGA | 0.0366 E-score |
| CAAAGCGA | -0.000185 E-score |
| CGGTCCGC | -0.254 E-score |

| Sequence | binding signal |
| --- | --- |
| ATTTCTCC | -0.162 E-score |
| CAGGCCGA | -0.0503 E-score |
| GCAACAGA | -0.178 E-score |
| CGCCAGTC | -0.165 E-score |
| ATCTGAAG | -0.0239 E-score |
| CAGTCTAC | -0.138 E-score |
| CCAGAGCG | -0.199 E-score |
| GCGAACCA | -0.103 E-score |
| CCAATCTA | 0.0617 E-score |
| ACCCGGCT | 0.22 E-score |
| CGCACAAG | -0.151 E-score |
| CCTCCTCC | 0.103 E-score |
| GCTGATTA | 0.0603 E-score |
| ACTTGCCT | -0.0635 E-score |
| GCTAAAGA | -0.11 E-score |
| AGCCATTG | -0.00278 E-score |
| ATGCAGGC | -0.104 E-score |
| CCCGTGCG | 0.147 E-score |
| ACCCCCTG | 0.134 E-score |
| GAGCGCCA | -0.0817 E-score |
| AATAAGTA | -0.0797 E-score |
| CCACCAAC | -0.0718 E-score |
| GCTGAACC | -0.106 E-score |
| GAGAAAAC | -0.146 E-score |
| AACCGCAC | -0.254 E-score |

| Sequence | binding signal |
| --- | --- |
| CCAGACTC | -0.0889 E-score |
| ATGCCGGC | 0.0235 E-score |
| GATAAACC | 0.141 E-score |
| GTCCCGTA | -0.129 E-score |
| AGGGGGAG | -0.163 E-score |
| ATGATTCC | 0.197 E-score |
| GGCATGAA | -0.00775 E-score |
| AAAATAGC | -0.338 E-score |
| AATTCACG | -0.143 E-score |
| CGGAATAC | 0.154 E-score |
| AATAAATT | -0.18 E-score |
| AGGCGCGG | -0.038 E-score |
| GCTACCCC | 0.158 E-score |
| AGTCTAGA | 0.0847 E-score |
| ATCTTATA | 0.275 E-score |
| AAAAGGCA | -0.12 E-score |
| GAGACAGA | 0.0639 E-score |
| CAGAAAAA | -0.3 E-score |
| CCTATGGC | -0.115 E-score |
